# A collection of fitness landscapes (doi:10.1016/j.celrep.2020.107928)
# In all, about 81,000 sequences were measured (“one-hybrid fitness for binding NBS DNA”: median about -0.1, highest 2% from about 0.36 on). Some of the results follow.
# B1: Caulobacter ParB omega fusion; a variant is named by its letters at X, in order, B8GW30 (parent)
# chain: MESVVVGEPGMSEGRRGLGRGLSALLGEVDAAPAQAPGEQLGGSREAPIEILQRNPDQPRRTFREEDLEDLSNSIREKGVLQPILVRPSPDTAGEYQIVAGERAWRAAQRAGLKTVPIMVRELDDLAVLEIGIIENVQRADLNVLEEALSYKVLMEKFERTQENIAQTIGKSXSHVANXMRLLXLPDEVQSYLVSGELTAXHARAIAAAADPVALAKQIIEGGLSVRETEALARKAPNLSAGKSKGGRPPRVKDTDTQALESDLSSVLGLDVSIDHRGSTGTLTITYATLEQLDDLCNRLTRGI
# Variants of: B1
# Test: one-hybrid fitness for binding NBS DNA (the Noc-binding site; scaled: cognate 1, non-cognate 0); higher = stronger binding
# Settings: with NBS DNA site
# Method in brief: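 Fitness is the rescaled log change in variant-to-wild-type read ratio, measured by Illumina sequencing of plasmids before and after bacterial one-hybrid selection. The scale puts cognate at 1 and non-cognate at 0. Selection of Caulobacter ParB libraries, four specificity codons randomised, took place in E. coli USO with a HIS3 reporter, site 19 bp from the promoter, over 48 hours at 37°C on M9-minus-histidine with 0.1 mM IPTG and 5 mM 3-AT.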
row,Variant,one-hybrid fitness for binding NBS DNA
1,IHNA,≤ 0.2
2,NRPD,≤ 0.2
3,VPIC,≤ 0.2
4,WKCC,≤ 0.2
5,PTPS,≤ 0.2
6,DENS,≤ 0.2
7,LDAM,≤ 0.2
8,SRIV,≤ 0.2
9,TSWY,≤ 0.2
10,DMHC,≤ 0.2
11,KIMR,≤ 0.2
12,QVLS,≤ 0.2
13,MRMT,≤ 0.2
14,AMKY,≤ 0.2
15,VVFF,≤ 0.2
16,HRKH,≤ 0.2
17,DETS,≤ 0.2
18,SEPR,≤ 0.2
19,DRWH,≤ 0.2
20,LRPR,≤ 0.2
21,MLEM,≤ 0.2
22,QKME,≤ 0.2
23,EVPR,≤ 0.2
24,WKGR,≤ 0.2
25,RIRY,0.259

row,Variant,one-hybrid fitness for binding NBS DNA
1,DKNF,≤ 0.2
2,RTKR,0.866
3,TANN,≤ 0.2
4,KLFA,≤ 0.2
5,IPCK,≤ 0.2
6,TGGF,≤ 0.2
7,AKLG,≤ 0.2
8,GPDA,≤ 0.2
9,TLKY,≤ 0.2
10,RLSR,0.43
11,CATR,≤ 0.2
12,SPYN,≤ 0.2
13,LFTV,≤ 0.2
14,VVQL,≤ 0.2
15,DCTY,≤ 0.2
16,AWSR,≤ 0.2
17,YQDC,≤ 0.2
18,HPVC,≤ 0.2
19,RQQI,≤ 0.2
20,RLKD,≤ 0.2
21,VLCI,≤ 0.2
22,YMAN,≤ 0.2
23,GSRG,≤ 0.2
24,TIFE,≤ 0.2
25,NPDV,≤ 0.2

row,Variant,one-hybrid fitness for binding NBS DNA
1,NNFT,≤ 0.2
2,YSKW,≤ 0.2
3,HTLL,≤ 0.2
4,CDNI,≤ 0.2
5,PQTD,≤ 0.2
6,GHTK,≤ 0.2
7,KRGG,≤ 0.2
8,MPAP,≤ 0.2
9,TGVY,≤ 0.2
10,CNMT,≤ 0.2
11,IVRK,≤ 0.2
12,EQTL,≤ 0.2
13,FDSP,≤ 0.2
14,CVYG,≤ 0.2
15,EFMG,≤ 0.2
16,SLRT,≤ 0.2
17,LDNY,≤ 0.2
18,DCRH,≤ 0.2
19,IYVG,≤ 0.2
20,HSIT,≤ 0.2
21,DMER,≤ 0.2
22,DRLA,≤ 0.2
23,DNQL,≤ 0.2
24,KVHV,≤ 0.2
25,SLDY,≤ 0.2

row,Variant,one-hybrid fitness for binding NBS DNA
1,QGHT,≤ 0.2
2,VHLD,≤ 0.2
3,NWVW,≤ 0.2
4,QELC,≤ 0.2
5,SNTW,≤ 0.2
6,RRSF,≤ 0.2
7,GCLP,≤ 0.2
8,DRIS,≤ 0.2
9,PRRA,≤ 0.2
10,QGDL,≤ 0.2
11,AYWY,≤ 0.2
12,TGVG,≤ 0.2
13,DYKS,≤ 0.2
14,QFHR,0.288
15,HWNV,≤ 0.2
16,GYMR,≤ 0.2
17,CHQR,≤ 0.2
18,YMFT,≤ 0.2
19,LTMY,≤ 0.2
20,VVFG,≤ 0.2
21,QSTL,≤ 0.2
22,YTIC,≤ 0.2
23,GGMV,≤ 0.2
24,RKSR,0.581
25,KHIS,≤ 0.2

row,Variant,one-hybrid fitness for binding NBS DNA
1,KRFN,≤ 0.2
2,LSDE,≤ 0.2
3,LSSS,≤ 0.2
4,IGCV,≤ 0.2
5,SDSV,≤ 0.2
6,IFST,≤ 0.2
7,HPHE,≤ 0.2
8,MKAR,≤ 0.2
9,VTTY,≤ 0.2
10,QQWA,0.212
11,TMAN,≤ 0.2
12,IPES,≤ 0.2
13,GCEN,≤ 0.2
14,HTTP,≤ 0.2
15,FLGL,≤ 0.2
16,YNRY,≤ 0.2
17,CQAV,≤ 0.2
18,PPMS,≤ 0.2
19,DNTL,≤ 0.2
20,SHAI,≤ 0.2
21,QPRR,0.365
22,FTNT,≤ 0.2
23,LAAA,≤ 0.2
24,KAKC,≤ 0.2
25,DRHF,≤ 0.2

row,Variant,one-hybrid fitness for binding NBS DNA
1,NNRR,≤ 0.2
2,DQST,≤ 0.2
3,LQGW,≤ 0.2
4,RLKV,≤ 0.2
5,KVVT,≤ 0.2
6,LLCL,≤ 0.2
7,YVIR,≤ 0.2
8,HLGM,≤ 0.2
9,TANW,≤ 0.2
10,HITC,≤ 0.2
11,SDVM,≤ 0.2
12,NVNT,≤ 0.2
13,RLAY,≤ 0.2
14,HVAT,≤ 0.2
15,GDFT,≤ 0.2
16,DPID,≤ 0.2
17,RSTT,0.426
18,KGMG,≤ 0.2
19,PNPT,≤ 0.2
20,PGQI,≤ 0.2
21,PHGH,≤ 0.2
22,ANER,≤ 0.2
23,QKGN,≤ 0.2
24,SPHW,≤ 0.2
25,YDFI,≤ 0.2

row,Variant,one-hybrid fitness for binding NBS DNA
1,FCSR,≤ 0.2
2,QDYL,≤ 0.2
3,GLRW,≤ 0.2
4,RVNG,≤ 0.2
5,TVKT,≤ 0.2
6,LGSN,≤ 0.2
7,GLLC,≤ 0.2
8,QSIS,0.232
9,PWTF,≤ 0.2
10,GHIE,≤ 0.2
11,IEFC,≤ 0.2
12,RHAV,≤ 0.2
13,YRGA,≤ 0.2
14,NRPG,≤ 0.2
15,TKHT,≤ 0.2
16,FSLS,≤ 0.2
17,EVVL,≤ 0.2
18,FCLT,≤ 0.2
19,ARRG,≤ 0.2
20,HLSQ,≤ 0.2
21,LCYG,≤ 0.2
22,MWLW,≤ 0.2
23,SDSI,≤ 0.2
24,SNYG,≤ 0.2
25,MRLM,≤ 0.2

row,Variant,one-hybrid fitness for binding NBS DNA
1,PFHV,≤ 0.2
2,QYSH,≤ 0.2
3,SKVI,≤ 0.2
4,EPLC,≤ 0.2
5,HKSS,≤ 0.2
6,YKAT,≤ 0.2
7,VQCS,≤ 0.2
8,QQLY,≤ 0.2
9,THGT,≤ 0.2
10,WYES,≤ 0.2
11,CRRL,≤ 0.2
12,ALLR,≤ 0.2
13,NEQM,≤ 0.2
14,MPKG,≤ 0.2
15,SARC,≤ 0.2
16,YVGI,≤ 0.2
17,RMWV,≤ 0.2
18,CGNC,≤ 0.2
19,SAGW,≤ 0.2
20,SRCD,≤ 0.2
